Source: patent US7785835 (QUEENSLAND UNIVERSITY OF TECHNOLOGY, dated 2010)

Biological target: T1, vitronectin (UniProt P04004 20-478)
T1 construct: also called VN
T1 sequence (looked up): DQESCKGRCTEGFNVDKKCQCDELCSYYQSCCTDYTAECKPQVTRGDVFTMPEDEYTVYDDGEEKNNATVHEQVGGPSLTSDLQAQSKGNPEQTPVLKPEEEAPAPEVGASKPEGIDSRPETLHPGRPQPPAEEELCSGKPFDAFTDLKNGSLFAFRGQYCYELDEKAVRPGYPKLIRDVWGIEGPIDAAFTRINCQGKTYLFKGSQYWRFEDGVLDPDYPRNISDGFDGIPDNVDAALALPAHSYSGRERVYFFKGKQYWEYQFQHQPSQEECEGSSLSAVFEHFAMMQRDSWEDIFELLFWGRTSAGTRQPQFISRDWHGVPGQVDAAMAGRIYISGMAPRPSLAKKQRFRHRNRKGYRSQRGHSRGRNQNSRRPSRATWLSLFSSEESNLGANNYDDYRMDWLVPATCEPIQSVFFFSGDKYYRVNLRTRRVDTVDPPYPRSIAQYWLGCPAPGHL
Experiment: competition binding assay, displacement of [^125I]-IGF-II from VN-coated wells (300 ng/well)
Procedure: Radiolabeled IGF-II (10,000 cpm) was added to vitronectin-coated wells and the number of counts bound determined after an overnight incubation and several washes. The binding is expressed as a percentage of the binding observed in the control wells with no added IGF-II or proIGF-II. The results are shown as the average of three replicates±SEM from two separate experiments.
Thus, the presence of the E domain within proIGF-II represents a structural modification that alters the binding to vitronectin. This could be due to steric hindrance by the additional domain in proIGF-II compared to IGF-II, or may be a result of an altered structure of the proIGF-II molecule that alters the affinity of proIGF-II for vitronectin.

- IC50: 65.6 nM
B1: proIGF-II (ligand)
chain: not shown
